Laboratory results published in PubChem BioAssay AID904 (National Center for Advancing Translational Sciences (NCATS), 2007).
The campaign covered roughly 55,000 compounds. About 530 (0.96%) were called active. The inconclusive results got no clear call from the source; some entries with a clear call stand among them for comparison. Calls come from the whole dose curve; as a rule, active = well fitted cell-killing curve with a large enough effect; inconclusive = small, poorly fitted or top-dose-only effect; inactive = no such curve, though single readings can be large or run the other way. Potencies beside an inconclusive call are fits to weak or partial responses and may not hold up.

Test: qHTS Screen for Compounds that Selectively Target Cancer Cells with p53 Mutations: Cytotoxicity of p53 Null Cells at the Nonpermissive Temperature; note: nearly all actives have a fitted effect of over 50% in size
Conditions: H1299 p53-null (neo) cells, 39C, ATPlite viability, 24 h; series mostly up to 46.1 µM
Method in brief: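 Luminescent ATP signal reported cell survival after H1299 lines (neo, p53 null; or p53 A138V) received up to 46 uM compound and 24 hr incubation at 39C.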
Potency is the fitted concentration of half-maximal effect; tags give direction and shape of the fitted curve.

Row | SMILES | Potency
1 | O=C(CSc1nc(-c2ccc(F)cc2)[nH]c1-c1ccc(F)cc1)Nc1ccc2c(c1)OCO2 | inconclusive: 11.2 µM [cytotoxic, partial curve]
2 | CC(C)Oc1ccc(C(=O)Nc2c(C(=O)Nc3cccc(F)c3)oc3ccccc23)cc1 | inconclusive: 12.6 µM [cytotoxic, partial curve, poor fit]
3 | CSc1ccc(-c2nnc(NC(=O)c3ccc4c(c3)OCCO4)o2)cc1 | inconclusive: 31.6 µM [cytotoxic, single point]
4 | CC(C)c1ccc(OCC(=O)N(Cc2cccs2)C2CCS(=O)(=O)C2)cc1 (stereo unspecified) | inconclusive: 0.398 µM [cytotoxic, full curve, poor fit]
5 | Cc1cc2ccccc2n1CCNC(=O)c1ccc(Br)cc1 | inconclusive: 31.6 µM [cytotoxic, partial curve, poor fit]
6 | Cc1ccccc1NC(=O)Cn1c(=O)n(Cc2ccc3c(c2)OCO3)c(=O)c2ccccc21 | inactive
7 | COc1ccc(-c2nc3cc(NC(=O)CSc4ccc(C)cc4)ccc3o2)cc1 | inconclusive: 0.0079 µM [cytotoxic, full curve, poor fit]
8 | Cc1cccc(-c2nc3scc(CCNS(=O)(=O)c4ccc5c(c4)OCCO5)n3n2)c1 | inconclusive: 0.01 µM [cytotoxic, full curve, poor fit]
9 | Cc1ccc(C(=O)Nc2cccc3cccnc23)cc1Cl | inconclusive: 0.794 µM [cytotoxic, full curve, poor fit]
10 | CCOc1ccc(NS(=O)(=O)c2ccc3[nH]c4c(c3c2)CCCCC4)cc1 | inconclusive: 6.31 µM [cytotoxic, single point]
11 | COc1ccc(CNc2nc(-c3ccc(OC)c(OC)c3)cc(C(F)(F)F)n2)cc1 | inconclusive: 22.4 µM [cytotoxic, partial curve, poor fit]
12 | CCOc1ccc(NC(=O)CSc2oc(-c3cccs3)nc2S(=O)(=O)c2ccc(Cl)cc2)cc1 | inconclusive: 5.01 µM [cytotoxic, partial curve]
13 | O=C(Cn1c(=O)n(-c2ccccc2)c(=O)c2ccc(C(=O)NCc3ccc4c(c3)OCO4)cc21)Nc1ccc(Br)cc1F | inconclusive: 10 µM [cytotoxic, partial curve]
14 | COc1cccc(/C=C(\C#N)c2nc3ccc(C)cc3[nH]2)c1 | inconclusive: 15.8 µM [cytotoxic, single point]
15 | COc1ccc(CNC(=O)c2cc3sccc3n2C)cc1 | inconclusive: 31.6 µM [cytotoxic, single point]
16 | Cc1ccc(C)c(N2CCN(C(=O)C3CCN(Cc4nc(-c5cccc(Cl)c5)oc4C)CC3)CC2)c1 | inactive
17 | O=C(Cn1nc(C(F)(F)F)c2c1CCCC2)Nc1ccc(F)c(Cl)c1 | inconclusive: 35.5 µM [cytotoxic, single point]
18 | COc1ccc(/C=C/C(=O)Nc2ccc(Cl)c(Cl)c2)cc1OC | inconclusive: 31.6 µM [cytotoxic, single point]
19 | COc1ccc(N2CCN(S(=O)(=O)c3c(C)nc4sc(C)cn4c3=O)CC2)cc1 | inconclusive: 31.6 µM [cytotoxic, single point]
20 | O=C(Nc1nnc(S(=O)(=O)N2CCCC2)s1)c1ccccc1Cl | inconclusive: 5.62 µM [cytotoxic, single point]
21 | COc1ccc(CCNC(=O)CSc2nc3ccccc3nc2Cc2ccc(C)cc2)cc1OC | inactive
22 | Cc1ccc2nc(-c3c[nH]c4ccccc34)c(Nc3ccccc3)n2c1 | inconclusive: 1.26 µM [cytotoxic, partial curve]

Row | SMILES | Potency
23 | CCOC(=O)c1cc(-c2ccc(C)cc2)n(CC(=O)Nc2ccc(OC)c(Cl)c2)c1C | inconclusive: 12.6 µM [cytotoxic, single point]
24 | O=C(CCn1cnc(-c2ccccc2)c1-c1ccccc1)N/N=C/c1ccccc1O | inconclusive: 11.2 µM [cytotoxic, partial curve, poor fit]
25 | COc1ccc(C)cc1NC(=O)CN1C(=O)COc2ccc(S(=O)(=O)N3CCCCCC3)cc21 | inconclusive: 0.158 µM [cytotoxic, full curve]
26 | O=C(COc1ccc(F)cc1)Nc1nccs1 | inconclusive: 17.8 µM [cytotoxic, single point]
27 | COc1ccc(NCc2nc3ccccc3n2CCOc2ccc(C)cc2)cc1 | inconclusive: 11.2 µM [cytotoxic, partial curve]
28 | Cc1ccc(-c2cnc(NCc3ccc(C(C)C)cc3)n2C)cc1 | inconclusive: 35.5 µM [cytotoxic, single point]
29 | Cc1ccc(NCc2nc3ccccc3n2CCOc2ccccc2C)cc1 | inconclusive: 35.5 µM [cytotoxic, single point]
30 | Cc1ccccc1CNCCCSc1nnnn1-c1ccccc1 | inconclusive: 25.1 µM [cytotoxic, single point]
31 | CC(=O)Nc1ccc(Nc2nc3ccc(C)cc3n3nnnc23)cc1 | inconclusive: 7.94 µM [cytotoxic, partial curve]
32 | CCS(=O)(=O)N1CCc2cc(C(=O)Nc3ccc(OC)cc3OC)ccc21 | inconclusive: 3.16 µM [cytotoxic, full curve]
33 | CC(=O)c1cccc(NC(=O)c2nc(-c3ccccc3)n(-c3cccc(C)c3)n2)c1 | inconclusive: 12.6 µM [cytotoxic, partial curve, poor fit]
34 | COc1cc(OC)c(NC(=O)c2c3c(nc4ccccc24)C(=O)N(C2CCCCC2)C3)cc1Cl | inconclusive: 10 µM [cytotoxic, partial curve, poor fit]
35 | CCOC(=O)c1ccccc1NC(=O)c1nn(C)c2c1COc1ccccc1-2 | inactive
36 | Cc1cc(Cl)ccc1NC(=O)c1cc2ccccn2n1 | inconclusive: 12.6 µM [cytotoxic, partial curve, poor fit]
37 | CCCN1CCN(CCCNC(=O)Cn2c(-c3cccs3)cc3cc(Cl)ccc32)CC1 | inactive
38 | Cc1ccc2occ(CC(=O)N3CCN(c4cccc(Cl)c4)CC3)c2c1 | inconclusive: 14.1 µM [cytotoxic, single point]
39 | COc1ccc(-n2c(CCC(=O)O)ccc2-c2ccccc2)c(OC)c1 | inactive
40 | COc1ccc(-c2noc(CSc3nnc(-c4ccccc4)n3C)n2)cc1 | inconclusive: 0.01 µM [cytotoxic, full curve]
41 | CC(=O)c1cc(-c2ccccc2)n(CC(=O)NCc2ccccc2C)c1C | inactive
42 | Cc1ccc2cc3cc(C(=O)N(C)c4ccccc4C)oc3nc2c1 | inconclusive: 14.1 µM [cytotoxic, partial curve]
43 | CC(C)CCNC(=O)c1ccc2c(c1)nc1n2CCCCC1 | active: 6.31 µM
44 | CCn1c(=O)cc(SCC(=O)NCc2ccc(C)cc2)c2ccccc21 | inactive

Row | SMILES | Potency
45 | COc1ccc(CCNC(=O)C(=O)NCC(c2cccnc2)N2CCN(c3ccccc3)CC2)cc1 (stereo unspecified) | inactive
46 | CCn1cnc2cc(NC(=O)c3ccco3)ccc21 | active: 12.6 µM
47 | Cc1ccc(Cl)cc1N1CCN(C(=O)C2CCCN(Cc3nc(-c4cccc(Cl)c4)oc3C)C2)CC1 (stereo unspecified) | inconclusive: 31.6 µM [cytotoxic, single point]
48 | CCOc1ccc(NC(=O)CN(C)S(=O)(=O)c2ccc3[nH]c4c(c3c2)CCCC4)cc1 | inactive
49 | O=C(COc1ccc(F)cc1)NC1CC(=O)N(c2ccc3c(c2)OCCO3)C1 (stereo unspecified) | inactive
50 | CCOC(=O)c1c(C)[nH]c(C)c1S(=O)(=O)N1CCN(c2ccc(Cl)cc2)CC1 | inactive
51 | CCc1ccc(NC(=O)N(Cc2cn(CC)c3ccccc23)C2CCCCC2)cc1 | inconclusive: 7.94 µM [cytotoxic, partial curve, poor fit]
52 | Cc1cc(C)cc(NC(=O)c2ncn(-c3ccccc3)n2)c1 | inconclusive: 17.8 µM [cytotoxic, partial curve]
53 | O=C1c2[nH]nc(-c3ccccc3O)c2C(c2ccc(Cl)cc2)N1CCc1ccccc1 (stereo unspecified) | active: 25.1 µM
54 | Cc1ccc(CNC(=O)c2nc(S(=O)(=O)Cc3ccc(C)cc3)ncc2Cl)cc1 | inconclusive: 2.82 µM [cytotoxic, partial curve]
55 | CCOc1ccc(CNC(=O)C2CCN(Cc3cc4ccccc4n3Cc3ccccc3C)CC2)cc1 | inactive
56 | CCc1ccc(NC(=O)CCCn2nc(C)c3c(C)n(-c4ccccc4)nc3c2=O)cc1 | inconclusive: 3.55 µM [cytotoxic, single point]
57 | Cc1ccc(OCC(=O)Nc2cc(-c3cccc(C)c3)nn2-c2ccccc2)cc1 | inactive
58 | Cc1cccc(N2CCN(C(=O)c3ccc(NC(=O)c4nsc5ccccc45)cc3)CC2)c1C | inconclusive: 35.5 µM [cytotoxic, single point]
59 | Cc1nc2c(C(=O)NCCc3ccccc3)c[nH]n2c(=O)c1Cc1ccc(F)cc1Cl | inconclusive: 3.16 µM [cytotoxic, single point]
60 | CCN(c1cc(C)cc(C)c1)S(=O)(=O)c1nnc(NC(=O)c2ccco2)s1 | inconclusive: 0.398 µM [cytotoxic, full curve, poor fit]
61 | Cc1nn2c(=O)cc(COC(=O)c3ccc(NC(=O)c4cccs4)cc3)nc2s1 | inactive
62 | Cc1ccc(CN2C(=O)C(O)(CC(=O)c3ccc(C)cc3)c3ccccc32)cc1 (stereo unspecified) | inactive
63 | COc1cccc(C(=O)c2cn(CC(=O)Nc3cc(Cl)c(OC)cc3OC)c3nc(C)ccc3c2=O)c1 | inactive
64 | Cc1ccccc1C(=O)Nc1sc2c(c1C(=O)O)CCC(C(C)(C)C)C2 (stereo unspecified) | inactive
65 | CC(C)(C)c1ccc(C(=O)Nc2ccc(C(=O)OCc3cc(=O)n4ccsc4n3)cc2)cc1 | active: 2 µM
66 | COc1ccc(NC(=O)CCCSc2nc(-c3ccco3)cc(C(F)(F)F)n2)cc1 | inconclusive: 12.6 µM [cytotoxic, single point]
